{"source": "PubChem BioAssay AID1347165", "about": "(National Center for Advancing Translational Sciences (NCATS), 2019)", "note": "The campaign covered roughly 220,000 compounds. About 5,700 (2.6%) were called active. This list was built around the results that the source calls inconclusive (neither active nor inactive); the mix of calls is not that of the screen. Calls follow the shape of the dose curve; as a rule, active = well fitted inhibition curve with a large enough effect; inconclusive = small, poorly fitted or top-dose-only effect; inactive = no such curve, though single readings can be large or run the other way. Potencies of inconclusive entries are doubtful fits and often do not repeat. Potency is read from the fitted curve at half-maximal effect; tags tell the direction and shape of the fitted curve."}
{"target": "Lysine-specific demethylase 5B (Homo sapiens) (UniProt Q9UGL1)", "sequence (Q9UGL1 whole entry, looked up)": "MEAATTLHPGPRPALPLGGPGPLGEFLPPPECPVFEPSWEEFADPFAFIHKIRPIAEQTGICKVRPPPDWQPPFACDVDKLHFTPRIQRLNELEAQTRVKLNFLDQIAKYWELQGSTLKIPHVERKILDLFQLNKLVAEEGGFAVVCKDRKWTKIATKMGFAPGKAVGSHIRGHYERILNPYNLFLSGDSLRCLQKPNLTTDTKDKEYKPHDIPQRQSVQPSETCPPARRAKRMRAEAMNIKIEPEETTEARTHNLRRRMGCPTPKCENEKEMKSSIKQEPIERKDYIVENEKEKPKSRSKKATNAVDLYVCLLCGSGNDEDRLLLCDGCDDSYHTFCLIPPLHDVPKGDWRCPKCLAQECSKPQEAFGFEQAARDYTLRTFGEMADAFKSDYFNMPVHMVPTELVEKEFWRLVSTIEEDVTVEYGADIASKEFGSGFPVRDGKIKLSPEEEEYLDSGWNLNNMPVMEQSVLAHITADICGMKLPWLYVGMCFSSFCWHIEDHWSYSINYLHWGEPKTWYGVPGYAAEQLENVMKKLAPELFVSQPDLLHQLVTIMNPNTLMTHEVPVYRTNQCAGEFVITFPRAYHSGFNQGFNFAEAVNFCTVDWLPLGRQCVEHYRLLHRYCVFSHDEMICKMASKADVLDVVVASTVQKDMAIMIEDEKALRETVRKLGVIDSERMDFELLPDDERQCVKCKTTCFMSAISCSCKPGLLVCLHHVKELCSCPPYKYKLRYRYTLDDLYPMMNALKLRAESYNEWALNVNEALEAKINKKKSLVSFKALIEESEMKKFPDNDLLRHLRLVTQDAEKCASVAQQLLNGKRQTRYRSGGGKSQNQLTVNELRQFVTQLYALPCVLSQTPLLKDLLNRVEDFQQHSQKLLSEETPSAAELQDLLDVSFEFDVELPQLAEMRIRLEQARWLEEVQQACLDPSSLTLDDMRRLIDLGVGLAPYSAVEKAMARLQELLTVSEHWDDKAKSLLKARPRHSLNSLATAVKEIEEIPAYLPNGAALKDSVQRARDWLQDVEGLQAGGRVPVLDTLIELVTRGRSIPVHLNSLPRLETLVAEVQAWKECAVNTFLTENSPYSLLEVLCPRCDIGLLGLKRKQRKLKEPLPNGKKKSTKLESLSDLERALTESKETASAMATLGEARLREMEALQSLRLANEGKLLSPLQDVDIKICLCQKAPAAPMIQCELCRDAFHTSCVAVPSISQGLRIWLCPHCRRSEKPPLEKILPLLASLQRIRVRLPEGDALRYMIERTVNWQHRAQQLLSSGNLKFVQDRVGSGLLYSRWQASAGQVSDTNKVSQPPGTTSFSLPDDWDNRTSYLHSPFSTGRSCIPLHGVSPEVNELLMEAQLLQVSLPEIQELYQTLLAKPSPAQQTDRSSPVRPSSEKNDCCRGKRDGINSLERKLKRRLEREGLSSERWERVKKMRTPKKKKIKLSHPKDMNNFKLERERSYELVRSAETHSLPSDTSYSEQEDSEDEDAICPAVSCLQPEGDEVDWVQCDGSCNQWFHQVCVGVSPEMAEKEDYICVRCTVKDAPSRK", "assay": "Primary screen for KDM5B Histone Demethylases FDH-coupled qHTS; also: nearly all actives have a fitted effect of over 70% in size; as to activity change, negative = inhibition: 0% is about no effect", "settings": "FDH-coupled NADH fluorescence (FDH is formaldehyde dehydrogenase); activity change, negative = inhibition: at 57.7 µM (top of the series) unless noted", "summary_of_the_method": "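Compound dilutions met 200 nM (final) KDM5BΔAP for 10 min at room temperature before substrate addition. The substrate mix held 12.5 µM H3K4me3 with cofactors 25 µM α-ketoglutarate and 50 µM Fe²⁺. NADH signal gain over 30 min defined activity.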"}
{"smiles": "O=C(Nc1ccc2c(c1)OCO2)C1CN(S(=O)(=O)c2cccnc2)CC12CCCCC2", "note": "(configuration not stated)", "Potency": "inconclusive: 25.1 µM [inhibitor, partial curve]"}
{"smiles": "CC1(C)CC(=O)c2cc(-c3nc(-c4ccc(Cl)cc4)cs3)c(=O)n(-c3cccc(F)c3)c2C1", "Potency": "inconclusive: 1.26 µM [inhibitor, partial curve, poor fit]"}
{"smiles": "C=CC[C@H]1CC=C[C@H](CC=C)[N+]1(C)C", "Potency": "inactive"}
{"smiles": "CCN(CC)c1nc2ccccc2nc1C(=O)Nc1ccc(C)cc1C", "activity change, negative = inhibition": "inactive: 8.4%"}
{"smiles": "O=C(CN1CCN(c2nc3ncccc3o2)CC1)c1cccc(Cl)c1", "Potency": "inconclusive: 17.8 µM [inhibitor, partial curve]"}
{"smiles": "CN(Cc1ccccc1)S(=O)(=O)c1ccc(F)c(C(=O)Nc2cc(Cl)cc(Cl)c2)c1", "Potency": "inconclusive: 39.8 µM [inhibitor, single point]"}
{"smiles": "CN(C)C(=O)c1cccnc1OC1CCN(C(=O)Cc2ccc(Cl)cc2)C1", "note": "(configuration not stated)", "activity change, negative = inhibition": "inactive: -17.9%"}
{"smiles": "CC(C)c1ccc2c(c1)C1(CC(=O)Nc3c1sc(C(=O)O)c3-c1ccccc1F)C(=O)N2C", "note": "(configuration not stated)", "activity change, negative = inhibition": "inactive: 15.1%"}
{"smiles": "COc1ccccc1C1C2=C(CC(C)(C)CC2=O)Nc2n[nH]c(-c3ccccc3)c21", "note": "(configuration not stated)", "Potency": "inconclusive: 20 µM [inhibitor, partial curve, poor fit]"}
{"smiles": "O=C(NCc1ccccc1)c1ccc(Cn2c(=O)c3cccn3c3cccnc32)cc1", "Potency": "inconclusive: 10 µM [inhibitor, partial curve, poor fit]"}
{"smiles": "CC(=O)c1cccc(NC(=O)c2ccc3c(c2)c(C)c(C)n3Cc2ccc(Cl)cc2)c1", "Potency": "inconclusive: 15.8 µM [inhibitor, partial curve, poor fit]"}
{"smiles": "COc1ccc(-c2cc(N3CCCC(NC(=O)c4ccc5[nH]ccc5c4)C3)n[nH]2)cc1", "note": "(configuration not stated)", "Potency": "inconclusive: 17.8 µM [inhibitor, partial curve]"}
{"smiles": "COc1cccc(-c2cc3c(=O)n(CCNC(=O)c4cc(F)cc(F)c4)ccn3n2)c1", "activity change, negative = inhibition": "inactive: 1500%"}
{"smiles": "COc1ccc(-c2nc(C)nc3c2CN(C(=O)c2ccccn2)CC3)cc1", "Potency": "active: 15.8 µM"}
{"smiles": "Cc1cccc(NC(=O)N(Cc2cccs2)C2CC2)c1", "activity change, negative = inhibition": "inactive: 19.2%"}
{"smiles": "COc1ccc(-c2nn3c(=O)cc(CNC(=O)c4ccc(C(C)(C)C)cc4)nc3s2)cc1", "Potency": "inconclusive: 14.1 µM [inhibitor, partial curve, poor fit]"}
{"smiles": "CC(C)(C)NC(=O)C[C@@H]1CCNC[C@@H]1Cc1cc(CC2CCCCC2)on1", "activity change, negative = inhibition": "inactive: 21.9% [at 86.2 µM]"}
{"smiles": "Cc1nc(SCC(=O)Nc2ccc(Cl)cc2C(F)(F)F)[nH]c(=O)c1Cc1ccccc1", "Potency": "inconclusive: 15.8 µM [inhibitor, partial curve, poor fit]"}
{"smiles": "Cc1cc(C)cc(NC(=O)CNC(c2ccccc2)c2ccccc2)c1", "Potency": "inconclusive: 10 µM [inhibitor, partial curve, poor fit]"}
{"smiles": "Cc1cccc(Nc2cc(C)nc3nc(Cc4ccc(Cl)cc4)nn23)c1", "Potency": "inconclusive: 22.4 µM [inhibitor, single point]"}
{"smiles": "CCCOc1ccccc1C(=O)Nc1ccc(-c2nc3ccc(C)cc3s2)cc1", "Potency": "inconclusive: 3.98 µM [inhibitor, partial curve, poor fit]"}
{"smiles": "COC(=O)c1ccc(CN(Cc2ccc(OC)c(OC)c2)S(=O)(=O)c2ccc(F)c(C(=O)Nc3cc(C)ccc3C)c2)cc1", "Potency": "inconclusive: 35.5 µM [inhibitor, single point]"}
{"smiles": "Cc1ccc(-c2cc(C(=O)O)c3ccc(C)c(C)c3n2)s1", "Potency": "inconclusive: 22.4 µM [inhibitor, partial curve, poor fit]"}
{"smiles": "CC(Oc1ccccc1)C(=O)Nc1ccc(C(=O)OCc2cc(=O)n3ccsc3n2)cc1", "note": "(configuration not stated)", "Potency": "inconclusive: 15.8 µM [inhibitor, partial curve, poor fit]"}
{"smiles": "N#Cc1nc(/C=C/c2ccc(F)cc2)oc1N1CCCCC1", "Potency": "inconclusive: 1.78 µM [inhibitor, partial curve, poor fit]"}
{"smiles": "COc1ccc(-n2nc(C3CCN(Cc4ccccn4)CC3)[nH]c2=O)cc1", "Potency": "inconclusive: 22.4 µM [inhibitor, partial curve, poor fit]"}
{"smiles": "CCOC(=O)C(C(=O)OCC)C(NC(=O)OC)C(Cl)(Cl)Cl", "note": "(configuration not stated)", "activity change, negative = inhibition": "inactive: -6.44%"}
{"smiles": "CCOc1ccccc1CNC(=O)c1ccc2nc(CCc3ccccc3)oc2c1", "Potency": "inconclusive: 28.2 µM [inhibitor, single point]"}
{"smiles": "CC(Sc1cccc2cccnc12)C(=O)NC(=O)NC1CCCC1", "note": "(configuration not stated)", "Potency": "inconclusive: 28.2 µM [inhibitor, single point]"}
{"smiles": "CCOc1ccc(C(=O)N2CCC3(CC2)N(C)C(=O)CS3(=O)=O)cc1", "activity change, negative = inhibition": "inactive: 15.3%"}
{"smiles": "CCc1ccc(-c2cn3c(n2)sc2cc(C(=O)NCCCc4ccccc4)ccc23)cc1", "Potency": "inconclusive: 14.1 µM [inhibitor, partial curve, poor fit]"}
{"smiles": "O=C(NC1CCN(c2cnn(Cc3ccccc3)c(=O)c2)CC1)C1CCCCC1", "activity change, negative = inhibition": "inactive: -8.98%"}
{"smiles": "CN1CCN(CC(=O)Nc2ccc(OC(F)(F)F)cc2)CC1", "Potency": "inconclusive: 25.1 µM [inhibitor, partial curve, poor fit]"}
{"smiles": "COc1ccc(CC(=O)Nc2ccc3ncnc(N4CCCC4)c3c2)c(Cl)c1", "Potency": "inconclusive: 28.2 µM [inhibitor, single point]"}
{"smiles": "CCOc1ccc(C(c2c(C)[nH]n(-c3ccccc3)c2=O)c2c(C)[nH]n(-c3ccccc3)c2=O)cc1OC", "activity change, negative = inhibition": "inconclusive: -35.9% [inhibitor] [at 11.5 µM]"}
{"smiles": "COCCNc1nc2c(c(=O)n(C)c(=O)n2C)n1Cc1cccc2ccccc12", "activity change, negative = inhibition": "inactive: 10.2%"}
{"smiles": "CC1(C)[C@H](Cc2cc(CN3CCOCC3)on2)C[C@@H]1N(Cc1ccco1)Cc1ccco1", "Potency": "inconclusive: 22.4 µM [inhibitor, partial curve, poor fit]"}
{"smiles": "O=C(NCc1ccccc1)c1ccccc1NC(=O)C1CCC1", "Potency": "inconclusive: 12.6 µM [inhibitor, partial curve, poor fit]"}
{"smiles": "CC(C)CN1CCC[C@H]1c1nc(-c2ccnc(N3CCOCC3)c2)no1", "Potency": "active: 31.6 µM"}
{"smiles": "C=CCNC(=O)CC1CCCN(c2cnn(C)c(=O)c2)C1", "note": "(configuration not stated)", "activity change, negative = inhibition": "inactive: -10.1%"}
{"smiles": "O=C(c1cn2ccccc2n1)N1CCN(c2cccc(Cl)c2)CC1", "activity change, negative = inhibition": "inactive: 14.3%"}
{"smiles": "O=C(NCCCO)c1ccc(-c2ncc3cnc(-c4cccc(F)c4)cn23)cc1", "Potency": "inconclusive: 35.5 µM [inhibitor, partial curve, poor fit]"}
{"smiles": "Cc1cc(=O)oc2c(C)c3oc(/C(=N/O)c4ccccc4)c(C)c3cc12", "activity change, negative = inhibition": "inactive: 41%"}
{"smiles": "CCOc1ccc(S(=O)(=O)Nc2nc3ccccc3nc2N2CCCC2)cc1", "activity change, negative = inhibition": "inactive: 6.33%"}
{"smiles": "CCc1cc(=O)n(CC(=O)NCc2ccc(OC)c(OC)c2)c(N2CCOCC2)n1", "activity change, negative = inhibition": "inactive: 3.43%"}
{"smiles": "O=C(NCC1CCCCC1)c1ccc(N2CC3CC(C2)[C@H]2CCCC(=O)N2C3)nc1", "note": "(some centres not stated)", "Potency": "inconclusive: 39.8 µM [inhibitor, single point]"}
{"smiles": "CN(CCO)c1ccc(/C=N/NC(=O)C2CC2)cc1", "Potency": "inconclusive: 28.2 µM [inhibitor, partial curve, poor fit]"}
{"smiles": "CC(C)[C@H](NC(=O)c1c(F)cccc1F)C(=O)O", "activity change, negative = inhibition": "inactive: -9.52%"}
{"smiles": "COc1ccc(Cl)cc1-c1ccc2c(c1)C(=O)N1CCN(C(=O)C3CCNCC3)C[C@@H]1C(=O)N2", "Potency": "inconclusive: 22.4 µM [inhibitor, partial curve, poor fit]"}
{"smiles": "COCC1CN(C)CC12CCN(Cc1ccc(OC)cc1)CC2", "note": "(configuration not stated)", "Potency": "inconclusive: 20 µM [inhibitor, partial curve, poor fit]"}
{"smiles": "O=C(COc1ccc2ccccc2c1)NCc1ccccc1CN1CCCC1", "activity change, negative = inhibition": "inactive: 8.29%"}
{"smiles": "Cc1ccc(CN2CCC3(CC2)CN(c2ncccn2)CC3CO)cc1C", "note": "(configuration not stated)", "Potency": "active: 25.1 µM"}
{"smiles": "Cc1c(-c2ccc(Cl)cc2)c(=O)oc2cc(OC(=O)N3CCOCC3)ccc12", "activity change, negative = inhibition": "inactive: 4.86%"}
{"smiles": "Cc1ccc(CN2CC[C@@H]3[C@H]2C(=O)NC[C@H](CCC(=O)N2CCCC2)N3C)cc1", "Potency": "inconclusive: 28.2 µM [inhibitor, partial curve]"}
{"smiles": "N#C/C(=C\\c1ccc(F)cc1)C(=O)Nc1ccccn1", "Potency": "inconclusive: 28.2 µM [inhibitor, partial curve, poor fit]"}
{"smiles": "O=C(CSC1=Nc2ccccc2C2=NC(Cc3ccccc3)C(=O)N12)Nc1ccccc1", "note": "(configuration not stated)", "Potency": "inconclusive: 14.1 µM [inhibitor, partial curve, poor fit]"}
{"smiles": "COc1ccc(-c2nnc3ccc(N4CCC(c5ccccc5)CC4)nn23)nc1", "Potency": "active: 35.5 µM"}
{"smiles": "C=CCN(Cc1ccc(F)cc1)Cc1ccccc1OCC(N)=O", "activity change, negative = inhibition": "inactive: -12.8%"}
{"smiles": "COCc1nc(N(C)Cc2ccccc2)ncc1C(=O)O", "Potency": "inconclusive: 28.2 µM [inhibitor, partial curve, poor fit]"}
{"smiles": "Cc1ccc(OCCSc2nc3ccccc3n2CC(=O)N2CCCCC2)c(C)c1", "Potency": "inconclusive: 31.6 µM [inhibitor, partial curve, poor fit]"}
{"smiles": "O=C(NNC1=Nc2ccccc2SC1)c1cccc([N+](=O)[O-])c1", "Potency": "inconclusive: 20 µM [inhibitor, partial curve, poor fit]"}
{"smiles": "COc1ccc(N2C(=O)CSC23CCN(C(=O)Nc2ccc([N+](=O)[O-])cc2)CC3)cc1", "activity change, negative = inhibition": "inactive: -17.1%"}
{"smiles": "Nc1nnc(-c2cccc(F)c2)s1", "Potency": "inconclusive: 35.5 µM [inhibitor, single point]"}
{"smiles": "O=C(Nc1cccc(-c2nc3cc(Cl)ccc3o2)c1)c1ccc(F)cc1", "Potency": "inconclusive: 0.794 µM [inhibitor, full curve, poor fit]"}
{"smiles": "CCOc1nccn2c(-c3ccc(CNC(=O)c4ccnn4C)cc3)cnc12", "Potency": "active: 39.8 µM"}
{"smiles": "COc1ccc2oc(-c3ccc(NC(=O)c4ccc(C)cc4)cc3)nc2c1", "activity change, negative = inhibition": "inactive: -31.7%"}
{"smiles": "COc1cc(Cl)ccc1C(=O)N1CCC(N2CC3CC(C2)[C@H]2CCCC(=O)N2C3)CC1", "note": "(some centres not stated)", "Potency": "inconclusive: 17.8 µM [inhibitor, partial curve, poor fit]"}
